This assay relates to NCI-H322M lung. Kind of assay: inhibition of tumour cell growth, NCI panel, 48 h.

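Grown in 96-well plates, cells were treated for 48 hours with each compound at five concentrations. Insufficient inhibition: endpoint recorded as highest concentration tested. GI50 is the concentration that inhibits growth by half. TGI: concentration producing complete growth inhibition.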 Bounds are passed on as bounds.

The compound `CC(Oc1ccc2cc(C(=O)c3ccccc3)c(=O)oc2c1)C(=O)O` (configuration not stated) came in with a TGI of more than 100 µM.
Take `Cc1ccc(S(=O)(=O)n2cc(-c3nnnn3-c3ccc(Cl)cc3)c(=O)c3ccccc32)cc1`: the GI50 was more than 100 µM and the TGI was more than 100 µM.
On to `COc1cc(OC)cc(-c2cncn2-c2ccc(-c3nc4cc(OC)c(OC)c(OC)c4s3)cc2)c1`, for which the GI50 was 86.5 µM and the TGI was more than 100 µM.
In the case of `CC(C)=CCC[C@H](C)[C@H]1CC[C@@H](C)c2cc(O)c(C)cc21`, the TGI amounted to 32 µM.
Same read-out and setting: in the case of `CC(=O)Nc1ccc(-c2nc3ccccc3s2)cc1O` it was more than 100 µM.
The same measure, in the same setting: in the case of `COC(=O)[C@@H]1C[C@]2(CC=C(C)C)c3ccccc3N(S(=O)(=O)c3ccccc3)[C@@H]2N1C(=O)OC` it was more than 100 µM.
With `COc1ccc(-c2nocc2-c2cc(OC)c(OC)c(OC)c2)cc1`, the GI50 is 0.666 µM and the TGI was more than 100 µM.
Turning to `CCN(CC)C1=Nc2ccccc2-n2c(C)cnc2C1`, the TGI was more than 100 µM.
The same measure, in the same setting: in the case of `CC1=NN(C(=O)Cc2ccccc2)C(=O)/C1=C\c1ccco1` it was more than 100 µM; in that of `COc1ccccc1Cn1c2c(c3c(C(=O)NCCN(C)C)c(O)ccc31)C(=O)c1ccccc1C2=O`, 3.54 µM.
In turn, `CCC/C(=N\NC(=O)c1cc2ccccc2cc1O)C(CC)C(=O)CCC(=O)N(Cc1ccccc1)Cc1ccccc1` (configuration not stated) showed a TGI of more than 100 µM.
Same read-out and setting: in the case of `CC1(C)O[C@@H]2[C@@H]3OC(=O)C[C@@H]3[C@@H](COCc3ccccc3)[C@@H]2O1` it was more than 100 µM.
Still for that read-out and setting: the value for `CCN(CC)CCOc1ccc(C(=C2CCCCC2)c2ccc(OCCN(CC)CC)cc2)cc1` was 2.94 µM.
For `COc1cc(NC(N)=NCCC(C)(C)c2ccc(C(F)(F)F)cc2)ncc1C#N`, the GI50 is 1.99 µM and the TGI was found to be 3.57 µM.
For the compound `CCCCCCCCCC(CCCC(O)CC(=O)O)OC1OC(COC2OC(C)C(O)C(O)C2O)C(O)C(O)C1OC1OC(CO)C(O)C(O)C1OC1OC(C)C(O)C(O)C1O` (configuration not stated), the GI50 is more than 40 µM and the TGI is more than 40 µM.
Consider `O=C(/C=C/c1cccnc1)c1ccccc1O`, for which the GI50 is 28.1 µM and the TGI stood at 89.9 µM.
`C[C@]12CCC(=O)C=C1CC[C@@H]1C2CC[C@]2(C)Nc3c(ncn3-c3ccc(F)cc3)CC12` (some centres not stated) showed a TGI of more than 100 µM.
Turning to `Oc1cc2ccccc2cc1-c1n[nH]c(=S)n1-c1ccc(Cl)cc1`, the GI50 was 66.6 µM and the TGI was more than 100 µM.
On to `O=C(O)CNS(=O)(=O)c1ccc(NC(=O)Nc2ccccc2)cc1`, for which the TGI was more than 100 µM.
Same read-out and setting: in the case of `COC(=O)CCC(=O)c1ccc2c(c1)CC1(C2)Cc2ccc3c(c2C1)CCCC3=O` (configuration not stated) it was more than 100 µM; in that of `C/C(=N\Nc1nc2ccccc2o1)c1ccncn1`, more than 100 µM.
On the same count and under the same terms, in the case of `N#CC(c1cc(Cl)ncn1)c1nc2ccccc2s1` (configuration not stated) it was 23.7 µM; in that of `OCSc1nn(CO)c(=S)s1`, more than 100 µM.
For the compound `O=C1C(Cl)=C(Nc2cccc(O)c2)C(=O)N1c1cccc(Cl)c1Cl`, the GI50 is 17.4 µM and the TGI was determined as 49.7 µM.
As for `COC(=O)C1C2CCCN2OC1(C)CO` (configuration not stated), the TGI was more than 100 µM.
Same read-out and setting: in the case of `CCOC1SC(SC)=NN1C(=O)C(OC(C)=O)C(OC(C)=O)C(OC(C)=O)C(OC(C)=O)C(=O)N1N=C(SC)SC1OCC` (configuration not stated) it was more than 100 µM; in that of `S=C(Nc1ccccc1)N1N=C2c3ccccc3CC[C@H]2[C@@H]1c1ccccc1`, more than 100 µM; in that of `CN1CCCCC1CCN1c2ccccc2Sc2ccc(S(C)=O)cc21` (configuration not stated), more than 100 µM.
Turning to `Cc1ccc(NC(=O)c2nc(S(C)=O)oc2-c2ccc(F)cc2)cc1Nc1nccc(-c2cccnc2)n1` (configuration not stated), the GI50 is 4.61 µM and the TGI was 15.4 µM.
For `COC(=O)NN1C(C)=C(C(=O)OC)C2(CCOC2=O)C1(C)O` (configuration not stated), the TGI was more than 100 µM.
As for `C[n+]1ccc(-c2c3nc(c(-c4ccc5c(ccc[n+]5C)c4)c4ccc([nH]4)c(-c4cc[n+](C)cc4)c4nc(c(-c5ccc6c(ccc[n+]6C)c5)c5ccc2[nH]5)C=C4)C=C3)cc1`, the GI50 is 38.5 µM and the TGI is more than 50 µM.
For the compound `Cc1nc2cc(N)c(Cl)cc2[nH]1`, the TGI is more than 100 µM.

Values taken from PubChem BioAssay (NCI).
